# Among all 310,000 compounds or so, about 14,000 (4.5%) showed an effect of 50% or more. Effects have a minus sign here. The list shows a part of the results.
# Biological target: human ether-à-go-go-related gene (hERG) potassium channel (human, UniProt Q12809)
# Test: primary screen, population patch clamp on CHO cells stably expressing hERG
# 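Note: peak tail current of the secondary pulse compared with the same well before compound.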
# human ether-à-go-go-related gene (hERG) potassium channel, sequence (Q12809 whole entry, looked up): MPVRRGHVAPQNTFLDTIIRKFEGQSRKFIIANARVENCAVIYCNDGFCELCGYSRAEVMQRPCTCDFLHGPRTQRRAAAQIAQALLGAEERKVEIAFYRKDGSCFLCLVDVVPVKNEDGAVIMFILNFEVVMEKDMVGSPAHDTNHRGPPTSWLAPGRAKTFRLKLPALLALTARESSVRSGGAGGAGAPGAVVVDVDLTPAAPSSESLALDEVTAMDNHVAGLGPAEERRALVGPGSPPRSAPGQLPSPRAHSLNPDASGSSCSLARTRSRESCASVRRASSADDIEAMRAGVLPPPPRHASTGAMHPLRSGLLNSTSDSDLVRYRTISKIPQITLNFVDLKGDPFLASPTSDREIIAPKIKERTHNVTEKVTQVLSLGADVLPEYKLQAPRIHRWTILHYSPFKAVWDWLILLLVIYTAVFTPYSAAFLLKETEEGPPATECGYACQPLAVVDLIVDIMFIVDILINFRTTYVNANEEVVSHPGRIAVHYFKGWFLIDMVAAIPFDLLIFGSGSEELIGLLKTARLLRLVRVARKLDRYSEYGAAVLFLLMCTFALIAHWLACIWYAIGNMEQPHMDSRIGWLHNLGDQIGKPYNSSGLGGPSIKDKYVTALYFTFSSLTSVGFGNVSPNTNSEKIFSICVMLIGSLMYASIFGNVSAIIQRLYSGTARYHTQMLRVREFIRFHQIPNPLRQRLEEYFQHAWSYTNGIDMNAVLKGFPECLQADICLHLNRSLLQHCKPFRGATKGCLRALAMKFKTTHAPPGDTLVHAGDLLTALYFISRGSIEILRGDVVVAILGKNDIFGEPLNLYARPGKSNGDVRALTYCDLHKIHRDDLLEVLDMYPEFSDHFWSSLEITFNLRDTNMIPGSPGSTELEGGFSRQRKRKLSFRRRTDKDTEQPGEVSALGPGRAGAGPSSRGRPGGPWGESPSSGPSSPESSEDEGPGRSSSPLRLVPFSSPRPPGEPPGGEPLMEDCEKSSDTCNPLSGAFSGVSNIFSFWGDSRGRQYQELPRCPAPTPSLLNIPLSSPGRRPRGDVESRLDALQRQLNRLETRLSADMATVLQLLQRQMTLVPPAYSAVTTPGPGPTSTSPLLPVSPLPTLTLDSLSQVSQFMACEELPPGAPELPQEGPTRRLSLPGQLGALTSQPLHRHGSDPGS
row,Compound,"hERG current change (%, negative = inhibition) at 10uM [%]"
1,CCCc1nc(N)nc2c1C(=O)CC(C)(C)C2,-4.47
2,COc1cc(C=O)cc(OC)c1OS(=O)(=O)c1ccc(NC(C)=O)cc1,11.6
3,O=C1NC(=S)N/C1=C/c1ccc2ccccc2c1,12.7
4,CCCOc1ccc(/C=N/NC(=O)C(C)Sc2ccccn2)cc1OCC (stereo not shown),14.9
5,COc1ccc(CNC(=O)CN(C)S(=O)(=O)c2ccc3c(c2)c(=O)n(C)c(=O)n3C)cc1,-1.26
6,CC(Cc1ccccc1)NC(=O)CN1C(=O)c2ccccc2S1(=O)=O (stereo not shown),-1.55
7,COc1ccc(OCC#CCNC(C)(C)C)cc1.O=C(O)C(=O)O,4.38
8,O=C(O)C(=O)O.OC(COCc1cccs1)CN1CCN(c2cccc(Cl)c2)CC1 (stereo not shown),-63.8
9,CCOC(=O)C1(C)NC(c2ccc(O)cc2)C2C(=O)N(c3ccccc3)C(=O)C21 (stereo not shown),21.5
10,Cn1c(=O)n(C)c2cc(C(=O)Nc3ccc4c(c3)OCO4)ccc21,-3.82
11,Cc1c(Cl)cccc1NC(=S)N1CCN(Cc2ccc3c(c2)OCO3)CC1,21.5
12,Cc1ccc(S(=O)(=O)N(C)C)cc1NC(=O)COC(=O)/C=C/c1cccs1,3.08
13,Cc1cnc(NC(=O)CN2CCN(c3ccccn3)CC2)s1,-5.39
14,COc1ccc(/C=C2\SC(=O)N(CCNC(=O)C3CC4C=CC3C4)C2=O)cc1 (stereo not shown),-6.14
15,CC(C)CC1(C)NC(=O)N(CC(=O)Nc2ccc3c(c2)CCC3)C1=O (stereo not shown),6.59
16,COc1ccc(CCNC(=O)CSc2nnc(C(C)N(C)C)n2Cc2ccccc2)cc1OC (stereo not shown),4.41
17,CN(C)CC(C)(C)CNC(=O)C1CCN(CCCc2ccccc2)CC1.O=C(O)C(=O)O,12.5
18,Cn1cnc([N+](=O)[O-])c1Cl,6.55
19,O=C(C1=C(O)C(=O)N(CCN2CCOCC2)C1c1ccc([N+](=O)[O-])cc1)c1cccs1 (stereo not shown),26.2
20,COC(=O)C1=C(c2ccc(OCc3ccccc3)cc2)C[C@@H]2CC[C@H]1N2C(=O)NCc1ccc(N(C)C)cc1,-21.8
21,O=[N+]([O-])c1ccn(-c2nc(-c3ccccc3)cc(C(F)(F)F)n2)n1,-36.1
22,COc1ccc2cc3c(N)nn(C(=O)c4ccccc4Cl)c3nc2c1,14.2

row,Compound,"hERG current change (%, negative = inhibition) at 10uM [%]"
1,COc1ccc(-c2csc(NC(=S)NC(=O)/C=C/c3ccco3)n2)cc1Br,32.6
2,COc1cc2oc3ccccc3c2cc1N(CC(=O)N(C)C)S(=O)(=O)c1ccc(C)cc1,18
3,C[C@H]1CC[C@H]2C(=O)N[C@H](Cc3ccccc3)C(=O)N2[C@@H]1c1ccccc1,23.7
4,COc1ccc(-c2n[nH]c(=S)n2-c2cc(OC)ccc2OC)cc1,4.92
5,O=C(CSc1n[nH]c(=O)n1-c1ccccc1)Nc1ccccc1C(F)(F)F,18.5
6,O=C(NCc1ccc(Cl)cc1)c1ccc(CNc2c(N3CCOCC3)c(=O)c2=O)cc1,-0.41
7,Cc1ccc(C(=O)Nc2ccc(N3CCOCC3)cc2N2CCOCC2)cc1,3.11
8,CCC(C)NC(=O)c1ccc(NC(=O)C2CCCO2)cc1 (stereo not shown),7.95
9,Cc1ccc(CNC(=O)CCCn2nc(C)c3c(C)n(-c4ccccc4)nc3c2=O)cc1,5.48
10,CC1(c2nnc(Cc3ccccc3)o2)CC(c2ccccc2Br)=NO1 (stereo not shown),-23.9
11,CCCCC(=O)Nc1ccc2c(c1)nc(CCN1CCOCC1)n2C,-0.213
12,Nc1ncnc2c1C1(CCCCC1)Cc1ccccc1-2,-24.1
13,COc1ccc(CCNC(=O)CCC(=O)n2ncc3ccc(Cl)cc32)cc1OC,-8.04
14,COc1ccc(S(=O)(=O)N2CCCCCC2)cc1C(=O)NCCOc1ccc(C)cc1,-21.9
15,CCOC(=O)C1(Cc2cccc(OC)c2)CCN(Cc2ccccc2OC)CC1,-51.3
16,CCOC(=O)C1[C@H]2C(=O)N(CCCOC)C[C@]23C=C[C@H]1O3 (stereo partly shown),1.81
17,Cc1ccc(S(=O)(=O)NCCS(=O)(=O)N2CCN(c3ccccc3)CC2)cc1,-1.5
18,CC(OC(=O)c1cccc(S(=O)(=O)N2CCN(C)CC2)c1)C(=O)Nc1ccc(C(N)=O)cc1 (stereo not shown),2.14
19,CCn1c(SCC(=O)OCc2ccccc2)nnc1-c1ccco1,5.76
20,Cn1c(C(=O)NN)cc2cc(Oc3ccccc3)ccc21,-8.77
21,N#Cc1c(N2CCCC(O)C2)nc(N)c2c(N)nc3c(c12)CC(=O)N3C12CC3CC(CC(C3)C1)C2 (stereo not shown),16.5
